This note sets out measurements from ChEMBL document CHEMBL4888484, “Replenishing the malaria drug discovery pipeline: Screening and hit evaluation of the MMV Hit Generation Library 1 (HGL1) against asexual blood stage Plasmodium falciparum ,using a nano luciferase reporter read-out” (2022).

By % Inhibition is commonly meant the change of the read-out against control, counted positive when it falls.

Hit rate of the full screen: of about 150,000 compounds, about 540 (0.36%) showed an effect of 50% or more. This is one part of the list.

The subject of this assay is Plasmodium falciparum. The experiment in a line: Primary screen in NF54 nanoGlo assay, in single point, at 2uM, 72h; a lower Z score goes with more inhibition. It counts as functional, Erythrocyte. To be noted: timepoint 72 hour.
With `COc1cc2c(cc1OC)C1=C[C@@](O)(C(F)(F)F)C(=O)N1C(C)(C)C2`, the “% Inhibition” value amounted to 3% and the Z score is on record as -0.45.
On the same counts, the results for `N#Cc1cccc(CN2C[C@@H](Oc3ccccc3)C[C@H]2C(N)=O)c1` are -12% and 1.52.
Taken in the same sequence, the figures for `CCn1cc(CNc2cccnc2)c2ccccc21` were 2% and -0.27.
Taken in the same sequence, the figures for `O=C(c1ccccc1Cl)N1CCC2(CC1)N[C@@H](Cc1ccccc1)C(=O)N2CCc1ccccn1` were -9% and 0.82.
Consider `COc1ccc(C(=O)N(CC(=O)N(Cc2cccn2Cc2ccc(Br)cc2)C2CCCCC2)C(C)C)c(OC)c1`, for which the “% Inhibition” value was -11% and the Z score came out at 1.61.
On the same counts, the results for `O=C(CCc1ccc2c(c1)CCO2)ON1C(=O)CCC1=O` are -18% and 2.2.
On the same counts, the results for `Cc1cc(-c2ccccc2)nc2sc(-c3ccccc3)c([O-])[n+]12` are 32% and -4.69.
`COCC(=O)N(C)[C@@H](C)C1=CCCN(Cc2csc(C)n2)C1`: the “% Inhibition” value is -2% and the Z score was 0.44.
Taken in the same sequence, the figures for `O=C(O)c1ccc(CN2CCC[C@H]2Cn2ccnn2)cc1Cl` were -3% and 0.52.
On the same counts, the results for `CC[C@H]1COCCN1Cc1cc(Cl)c(OC)cc1OC` are -4% and 0.46.
Taken in the same sequence, the figures for `CS(=O)(=O)NCC[C@H]1CCCN(Cc2ccc3nonc3c2)C1` were -7% and 1.01.
On to `Cc1cc(OCC(=O)C(C)(C)C)ccc1C#N`, for which the “% Inhibition” value is reported as -4% and the Z score is on record as 0.78.
On the same counts, the results for `Cn1c(C(=O)NCc2cccc(F)c2)cc2ccncc21` are 1% and -0.15.
On the same counts, the results for `Cc1ccc(-c2nc(-c3cccc(OCc4ccc(F)c(F)c4)c3)no2)cc1` are -10% and 1.98.
Taken in the same sequence, the figures for `CCCn1ncc(C(=O)N2CCn3cccc3[C@@H]2CC)c1C` were -3% and 0.42.
With `CCc1nc2cc(-c3cccc(C(=O)NC4CCOCC4)c3)ccc2o1`, the “% Inhibition” value is 2% and the Z score is reported as -0.33.
As to `CCOC(=O)C1CCN(C(=O)c2ccc(N3C(=O)CCS3(=O)=O)cc2Cl)CC1`, the “% Inhibition” value was found to be 0% and the Z score is 0.04.
Taken in the same sequence, the figures for `CCC(=O)N1CCc2cc(N3C[C@@H](C(=O)N4CCN(c5ccccn5)CC4)CC3=O)ccc21` were -11% and 2.22.
For the compound `Cc1cccc(N2N=C(C(=O)NCc3ccccn3)CCC2=O)c1`, the “% Inhibition” value is -8% and the Z score stood at 0.96.
With `O=S(=O)(C1CC1)N1CCCN(C2CCC2)CC1`, the “% Inhibition” value is on record as -17% and the Z score is 2.95.
On the same counts, the results for `COc1ccc(-c2cnc3ccccc3n2)cc1NC(=O)c1ccc(Cl)cc1` are -9% and 1.61.
As to `Cc1ccc(O[C@H]2CCCN(C(=O)CCc3c(C)noc3C)C2)nn1`, the “% Inhibition” value was -10% and the Z score amounted to 1.77.
On the same counts, the results for `O=C(NC[C@]1(O)CCCN(C(=O)c2cc(C3CC3)n[nH]2)CC1)N1CCCC1` are 5% and -0.44.
Taken in the same sequence, the figures for `N#Cc1cc(-c2ccccc2)oc1N(S(=O)(=O)c1ccccc1)S(=O)(=O)c1ccccc1` were 1% and -0.13.
On the same counts, the results for `COCCNC(=O)[C@@H](C)[C@@H]1CC[C@@]2(C)CC[C@H](NC(=O)CC(C)(C)C)[C@@H](C)[C@@H]2[C@H]1O` are 31% and -3.58.
With `O=C(NCc1cccnc1N1CCOCC1)C1CCN(c2ccc(-n3cncn3)nn2)CC1`, the “% Inhibition” value is recorded as -7% and the Z score came out at 1.02.
Taken in the same sequence, the figures for `Cc1nnc(-c2ccc3ccn(CC(=O)N4CCN(c5ncccn5)CC4)c3c2)o1` were -5% and 0.59.
Taken in the same sequence, the figures for `C[C@H](NC(=O)c1cc[nH]c1C1CCC1)c1cncs1` were 1% and -0.26.
On the same counts, the results for `Nc1ccc2nc3n(c(=O)c2c1)CCCC3` are -11% and 1.34.
For `COc1cccc2[nH]c(C(=O)NCc3ccc4c(c3)CCN4C(=O)c3ccccc3)cc12`, the “% Inhibition” value is -4% and the Z score is 0.83.
Taken in the same sequence, the figures for `CCC(Nc1cccc(COCC2CCCCO2)c1)C(N)=O` (centres undefined) were -9% and 1.24.
Taken in the same sequence, the figures for `CN1CCN(c2ccccc2NC[C@]2(c3cccc(F)c3)CCOC2)CC1` were 6% and -0.75.
Taken in the same sequence, the figures for `O=C1CCC[C@H](CC(=O)N2CCn3c(cnc3C(F)(F)F)C2)N1` were 5% and -0.94.
Consider `CC(=O)N1CCC(C(=O)Nc2nc3c(ccc4ccccc43)s2)CC1`, for which the “% Inhibition” value is on record as -3% and the Z score is recorded as 0.28.
On the same counts, the results for `C#CCOc1ccc(CCNCc2cn(C)nc2-c2ccncc2)cc1` are -4% and 0.59.
On the same counts, the results for `Cc1cccc(CN2CCC(N3CCC(C(=O)N(C)[C@H]4CCOC4)CC3)CC2)n1` are -12% and 1.55.
Consider `Cc1nc(C(=O)NCc2ccc(Cl)cc2)co1`, for which the “% Inhibition” value was -10% and the Z score was 1.76.
Taken in the same sequence, the figures for `CC(C)(C)OC(=O)NC[C@H](NC(=O)Nc1ccc2c(c1)OCCO2)C1CCCCC1` were -2% and 0.33.
On the same counts, the results for `CCOC(=O)c1sc(NC2=NCCCCC2)nc1C` are -13% and 1.89.
With `Cc1c[nH]c(CN(C)CC2(C)COC2)c(C)c1=O`, the “% Inhibition” value came to 8% and the Z score is on record as -1.6.
On the same counts, the results for `C=CCCC(=O)N1C[C@H](c2ccccc2)[C@H](C(=O)O)C1` are -9% and 1.05.
On the same counts, the results for `Cc1cc(C(=O)N2CC3OCCN(Cc4ccccc4)C3C2)[nH]n1` (centres undefined) are -5% and 0.62.
